Measured values reported in PubChem BioAssay AID662 (National Center for Advancing Translational Sciences (NCATS), 2007).
The whole screen tested about 71,000 compounds, of which about 1,800 (2.5%) were called active. Inconclusive results, whose numbers are uncertain, are shown with a selection of clear calls. The call rests on the fitted dose curve; in most records, active means well fitted activation curve with a large enough effect in the signal ratio, with a control signal flat (not every such curve was filed as active); inconclusive means small, poorly fitted or top-dose-only effect, or effect the other way, or a change in a side signal; inactive means flat fitted curve, though single readings scatter; the % refers to the signal ratio. Potencies of inconclusive entries are doubtful fits and often do not repeat.

assay: Cell signaling CRE-BLA (Fsk stim); conditions: CHO CRE-bla reporter (cAMP response element driving beta-lactamase), forskolin EC10, beta-lactamase ratio; activity change, negative = inhibition: at 38.2 µM (top of the series) unless noted; on activity change, negative = inhibition: % of control where 0% means no effect
In short: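 Forskolin analogue NKH 477 at EC10 stimulated CRE-driven beta-lactamase in CHO cells alongside compound dilution series. Beta-lactamase was measured with CCF4, excitation 405 nm, emission ratio 460/530 nm.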
Potency means the concentration at half of the fitted maximal effect; tags describe the fitted curve by direction and shape.

SMILES | activity change, negative = inhibition | Potency
COc1ccc(CC(=O)OCC(=O)NC(=O)NC2CCCCC2)cc1 | inactive: 6.42% | –
O=S(=O)(O)c1cc(O)c2c(N=Cc3ccccc3O)cc(S(=O)(=O)O)cc2c1 | – | inconclusive: 3.98 µM [rising, single point]
Cc1ccc(S(=O)(=O)NCc2ccc(C(=O)N3CCN(c4ccccn4)CC3)cc2)cc1 | inconclusive: 11.3% | –
O=C(NCc1cn2ccsc2n1)c1c(F)cccc1Cl | inactive: -11.3% | –
O=C(NCCCN1CCCC1=O)c1ccc2c(c1)ncn2C1CCCCC1 | inconclusive: 23.4% | –
COc1ccc2c(C)cc(SCC(=O)N3CCOCC3)nc2c1 | – | inconclusive: 5.01 µM [falling, single point]
O=c1oc2ccccc2n1CSc1nc2ccccc2s1 | inconclusive: 16.2% | –
O=c1c2c3nc4ccccc4nc3n(/N=C/c3cccs3)c2ncn1-c1ccccc1 | – | active: 5.01 µM
Cc1cccc(NC(=O)CSc2nnc(-c3ccccc3)n2N)c1 | inconclusive: -20.5% | –
O=C(OCc1nnc(-c2ccccc2)o1)c1cn(-c2ccccc2)nc1-c1ccccc1 | – | inconclusive: 20 µM [rising, partial curve, poor fit]
CCn1c(SCC(=O)NCc2ccco2)nnc1C(C)C | inconclusive: 4.65% | –
Cc1ccc2nc(N3CCN(C(=O)c4cccs4)CC3)c(C#N)cc2c1 | inactive: 20.9% | –
O=C(CCN1CCN(c2ccc(F)cc2)CC1)Nc1ccc(F)cc1 | inconclusive: 15.3% | –
O=C(Nc1ccc(Cl)cc1C(=O)Nc1ccncc1)c1ccco1 | – | inconclusive: 10 µM [rising, partial curve]
COc1ccc2oc(=O)c(-c3nnc(NCc4ccco4)s3)cc2c1 | – | inconclusive: 10 µM [falling, single point]
CCN(CCNC(=O)CCCn1nc(C)n2c(cc3sccc32)c1=O)c1ccccc1 | – | inconclusive: 12.6 µM [rising, single point]
CC(=O)C1=C(C)NC(SCSc2ccccc2)=C(C#N)C1c1cccnc1 (stereo not drawn) | – | inconclusive: 3.16 µM [rising, full curve, poor fit]
Cc1nn(Cc2ccccc2)c(C)c1NC(=O)c1cc(-c2ccco2)on1 | inconclusive: 1.49% | –
Cc1c(C(=O)N2CCCC2)oc2c1-c1[nH]ncc1CC2 | – | inconclusive: 10 µM [rising, partial curve]
Cc1cccc(NC(=O)c2cc(NC(=O)c3ccco3)ccc2Cl)n1 | inactive: 29.3% | –
CCCCCC1=C2CNC(CCC)(C(=O)OC)C=C2C(C)C1=O (stereo not drawn) | inactive: -8.58% | –
Clc1ccc(Cn2c(CN3CCCC3)nc3ccccc32)cc1 | inconclusive: -6.23% | –
CC(=O)O[C@]1(C(C)=O)CC[C@@H]2[C@@H]3C=C(Cl)C4=CC(=O)[C@H]5C[C@@H]5[C@]4(C)[C@H]3CC[C@]21C | inactive | –
COC(=O)c1cccc(NC(=O)Cn2cnc3c2c(=O)n(C)c(=O)n3C)c1 | inconclusive: 19% | –
Nn1c(-c2cccs2)nc2sc3c(c2c1=O)CCCC3 | inconclusive: 28.4% | –
CCc1ccc(NC(=O)CSc2nc3c(c(=O)n(C)c(=O)n3C)n2C)cc1 | – | inconclusive: 10 µM [rising, partial curve]
O=C(CN(C(=O)CCC(=O)Nc1nccs1)c1ccc2c(c1)OCO2)NCC1CCCO1 (stereo not drawn) | inconclusive: -6.94% | –

SMILES | activity change, negative = inhibition | Potency
COc1ccc(OC)c(CNC(=O)C2CCCN(c3nc4ccccc4o3)C2)c1 (stereo not drawn) | inconclusive: 4.98% | –
c1ccc(Nc2nc(-c3ccoc3)nc3ccccc23)cc1 | inconclusive: 28.9% | –
O=C(NCc1ccc(N2CCCC2=O)cc1)c1cnccn1 | inconclusive: 14.7% | –
COc1ccc(C2CC(C(F)(F)F)n3nc(C(=O)NCc4c(C)nn(C)c4C)c(Cl)c3N2)cc1 (stereo not drawn) | inactive: -4.64% | –
CCN(CC)C(=O)c1cn(CC)c(=O)c2cc(OC)c(OC)cc12 | – | inconclusive: 12.6 µM [rising, partial curve]
Cc1c(=O)n(OCc2ccccc2)c2ccccc2[n+]1[O-] | inconclusive: 34.4% [at 7.6 µM] | –
CCOc1ccc2[nH]c(=O)c(C(c3nnnn3CC3CCCO3)N3CCc4ccccc4C3)cc2c1 (stereo not drawn) | – | inconclusive: 12.6 µM [rising, single point]
COc1ccc(-c2cc(C(=O)N3CCCCC3)no2)cc1OC | inconclusive: 29.5% | –
COc1ccccc1CNC(=O)CSc1nc(-c2ccccc2)cn1N | inconclusive: -8.9% | –
COCCn1c(=NC(=O)CSC(C)=O)sc2cc(OC)ccc21 | inconclusive: 1.71% | –
CCOc1ccccc1C1C(C(=O)Nc2ccccc2OC)=C(C)Nc2nnnn21 (stereo not drawn) | – | inconclusive: 12.6 µM [falling, partial curve]
CCNC(=O)c1ccc(NS(=O)(=O)c2ccccc2)cc1 | inactive: -11.6% | –
Cc1ccc(Cn2cnc3c(nnn3Cc3ccc(Cl)cc3)c2=O)cc1 | inactive: -19% | –
c1ccc(N2CCN(c3nc4ccccc4n4nnnc34)CC2)cc1 | – | inconclusive: 1.26 µM [rising, full curve, poor fit]
CC(C)c1nnc(NC(=O)CCC(=O)NCC2CCCO2)s1 (stereo not drawn) | inconclusive: -6.51% | –
CCOC(=O)C1CCN(c2ncnc3c2oc2ccc(Br)cc23)CC1 | – | active: 2.51 µM
COc1ccc(Cl)cc1C(=O)N(Cc1nc(-c2cccc(C)c2)no1)C(C)C | inconclusive: -16.2% | –
Cn1cccc1Cc1nnc(SCC(=O)NCc2ccco2)n1-c1ccc(F)cc1 | inactive: -11.9% | –
C=CC(O)(C#CCN(CC)CC)c1ccccc1 (stereo not drawn) | inconclusive: -8.03% | –
CC(C)OCC1CO1 (stereo not drawn) | inactive: -13.4% | –
COc1ccc(O)c(C=Nc2cc(C)on2)c1 | inactive: -1.66% | –
Cc1ccc(-n2ncc(C(=O)NCc3ccc4c(c3)OCO4)c2NC(=O)c2ccco2)cc1C | inconclusive: -23.3% | –
CCCCNc1nc(C)nc2c1nc(-c1ccccc1)n2C1CCN(Cc2ccccc2)C1 (stereo not drawn) | – | inconclusive: 3.98 µM [rising, single point]
CC1CCc2c(nc3ncnn3c2N2CCN(c3ccccc3)CC2)C1 (stereo not drawn) | inactive: 4.54% | –
CCN(CCNC(=O)Cn1c(=O)sc2ccccc21)c1ccccc1 | inactive: -17% | –
O=C1CC(c2cccc(Cl)c2)Cc2nc(N3CCOCC3)ncc21 (stereo not drawn) | – | inconclusive: 10 µM [rising, single point]
